The values that follow come from the RNAGym collection of RNA variant scans (doi:10.1093/nar/gkz1192).

B1: CPEB3 Ribozyme (parent)
chain: UAACAGGGGGCCACAGCAGAAGCGUUCACGUCGCAGCCCCUGUCAGAUUCUGGUGAAUCUGCGAAUUCUGCUGUAUAUCUC

Read counts are not given, so values of variants with three or more changes are uncertain.

This series covers variants of B1. Briefly: self-cleavage, relative activity (ratio to wild type); higher = more cleavage; in vitro, sequencing. In a few lines:
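Barcoded CPEB3 ribozyme mutants, produced by rounds of error-prone PCR, self-cleaved while being transcribed with T7 RNA polymerase for 5 hours at 37°C and during a subsequent 15 min DNase I step before EDTA was added. Sequencing of template-switched cDNA on Illumina gave cleaved and total reads, and DNA sequencing assigned barcodes to variants. Each variant's relative activity is its cleaved/total read fraction divided by the unmutated ribozyme's fraction, averaged across three batches. A variant needed a minimum of 5 reads.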
For UAACUGGGGGCCCCAGCAGAAGCGCUCACGUCGCGGCCCCUGUCAGAUUCUGGUGAAUCUGCGAAUUCUGCUGUAUAUCUC [A5U A13C U25C A35G], the self-cleavage was found to be 0.23.

For UAACGGGGGGCCACAGCAGAAGCGUUCACGUCGCAGCCCCUGUCAGAUUCUGGAGAAUCUGCGAAUUCUGCUGUAUAUCUU [A5G U54A C81U], the self-cleavage is 0.45.

Take UAACUGGGGGCCCCAGCAGAAGCGCUCGCGUCGCAGCCCCUGUCAGAUUCUGGUGUAUCUGCGAAUUCUGCUGUAUACCUC [A5U A13C U25C A28G A56U U78C]: the self-cleavage was 0.19.

As to UAACGGGGGGCCACAGCAGAAGCGUUCACGUCGCAGCCCCUGUCAGAUUCUGGUGAAUCUGCGAAUUCUGCUGUAUAGAUC [A5G U78G C79A], the self-cleavage turned out to be 1.06.

Regarding UAACGGGGGGCCACAGCAGAAGCGUUCACGUCGCAGCCCCUGUCAGAUUCUGGUGAAUCUGCGAAUUCUGCUGUAUAGUUC [A5G U78G C79U], the self-cleavage amounted to 0.67.

Take UAACGGGGGGCCACAGCAGAAGCGUUCACGUCGCAGCCCCUGUCAGAUUCCGGUGAAUCUGCGAAUUCUGCUGUAAAUCUC [A5G U51C U76A]: the self-cleavage stood at 0.64.

With UAACGGGGGGCCACAGCAGAAGCGUUCACGUCGCAGCCCCUGUCAGAUUCUGGCGAAUCUGCGGAUUCUGCUGUAUAACUC [A5G U54C A64G U78A], the self-cleavage is 0.81.

With UAACUGGGGGCCGUAGCAGAAGCGUUCACGUCGCAGCCCCCGUCAGAUUCUGGUGAAUCUGCGAAUUCUGCUGUAUAUCUC [A5U A13G C14U U41C], the self-cleavage came out at 1.04.

On to UAACUGGGGGCCGCAGCAGAAGCGUUCACGUCGCUGCCCCUGUCAGAUUCUGGAGAAUCUGCGUAUUCUGCUGUGUAUCUC [A5U A13G A35U U54A A64U A75G], for which the self-cleavage was 0.13.

For UAACUGGGGGCCGCAGCAGAAGCGUUCUCGUGGCAGCCCCUGUCAGAUUCUGGUGAAUCUGCGAAUUCUGCUGUAUAUAUC [A5U A13G A28U C32G C79A], the self-cleavage came out at 0.12.

As to UAACGGGGGGCCACAGCAGAAGCGUUCACGUCGCAGCCCCUGUCAGAUUCUGGUGAAUCUGCGAAUUCUGCCAUAUAUCUC [A5G U72C G73A], the self-cleavage came to 1.27.

In the case of UAACGGGGGGCCACAGCAGAAGCGUUCACGUCGCAGCCCCUGUCAGAUUCUGGUGAAUCAGCGAAUUCUGCUGUAUACCUC [A5G U60A U78C], the self-cleavage stood at 0.19.

For the variant UAACUGGGGGCCCCAGCAGAAGUGUUCACGUCGCAGCCCCUGUCGGAUUCUGGCGAAUCUGCGAAUUCUGCUGUAAAUCUC [A5U A13C C23U A45G U54C U76A], the self-cleavage is 0.17.

Regarding UAACGGGGGGCCACAGCAGAAGCGUUCACGUCGCAGCCCCUGUCAGAUUCUGGCGAAUCCGCGAAUUCCGCUGUAUAUCUC [A5G U54C U60C U69C], the self-cleavage came out at 0.09.

In the case of UAACUGGGGGCCGCAGCUGAAGCGUUCACGUCGCAGCCCCUGUCAGAUUCUGGUGGAUCUGCGAAUACUGCUCUAUAUCUC [A5U A13G A18U A56G U67A G73C], the self-cleavage was 0.18.

For the variant UAACGGGGGGCCACAGCAGAAGCGUUCACGUCGCAGCCCCUGUCAGAUUCUGGUGAAUCUGCGAAUUCUGCUGUAAGUCUC [A5G U76A A77G], the self-cleavage was 0.61.

For the variant UAACGGGGGGCCACAGCAGAAGCGUUCACGUCGCAGCCCCUGUCAGAUUCUGGCGAGUCUGCGAAUUCUGCUGCAUAUCUC [A5G U54C A57G U74C], the self-cleavage came out at 0.17.

Consider UAACGGGGGGCCACAGCAGAAGCGUUCACGUCGCAGCCCCUGUCAGAUUCUGGUGAAACUGCGAAUUCUUCUGUAUAUCUC [A5G U58A G70U], for which the self-cleavage came out at 0.11.

In the case of UAACUGGGGGCCGCAGCAGAGGCGUUCACGUCGCAGCCCCUGUCAGAUUCUGGUGAAUCUGCGAAUUCUGCUGUAUAUCUC [A5U A13G A21G], the self-cleavage stood at 0.76.

In the case of UAACUGGGGGCCGCAGCAGAGGCGUUCACGUCGCAGCCCCCGUCAGAUUCUGGUGAAUCUGCGAAUUCUGCUGUAUAUCUC [A5U A13G A21G U41C], the self-cleavage amounted to 0.6.

As for UAACUGGGGGCCCCAGCAGAAGCGUUCACGUCGCAGCCCAUGUCAGAUUCUGGUGAAUCAGCGAAUUCUGCUGCAUAUCUC [A5U A13C C40A U60A U74C], the self-cleavage was determined as 0.45.

Consider UAACGGGGGGCCACAGCAGAAGCGUUCACGUCGCAGCCCCUGUCAGAUUCUGGUGAAUCUGCGAAUUCUGCUGCGUAUCUC [A5G U74C A75G], for which the self-cleavage amounted to 1.09.

As to UAACUGGGGGCCGCAGCAGAAGCGUUCGCGUCGCAGCCCCUGUCAGAUUCUGGUGAAUCUGCGAAUUCUGCUGUAUAUCUC [A5U A13G A28G], the self-cleavage turned out to be 0.55.

For UAACUGGGGGCCGCAGCAGGAGCGUACACGUCGCUGCCCCUGUCAGAUUCUGGUGAAUCUGCGAAUUCUGCUGUAUAUCUC [A5U A13G A20G U26A A35U], the self-cleavage came to 0.36.

As to UAACGGGGGGCCACAGCAGAAGCGUUCACGUCGCAGCCCCUGUCAGAUUCUGGUGAAUCUGCGAAUUCUGCUGUACAUCCC [A5G U76C U80C], the self-cleavage is 0.68.

With UAACUGGGGGCCGCAGCGGAAGCGUACACGUCGCAGCCCCUGUCAGAUACUGGUGAAUCUGCGAAUUCUGCUGCAUACCUC [A5U A13G A18G U26A U49A U74C U78C], the self-cleavage stood at 0.16.

For UAACGGGGGGCCACAGCAGAAGCGUUCACGUCGCAGCCCCUGUCAGAUUCGGGUGAAUCCGCGAAUUCUGCUGUAUAUCUC [A5G U51G U60C], the self-cleavage came to 0.47.

As for UAACGGGGGGCCACAGCAGAAGCGUUCACGUCGCAGCCCCUGUCAGAUUCUGGCGAAUCCGCGAAUUCUGCUGUAUAUCUC [A5G U54C U60C], the self-cleavage was 0.34.

As for UAACGGGGGGCCACAGCAGAAGCGUUCACGUCGCAGCCCCUGUCAGAUUCUGGUGAAUCUGCGAAUUCCGCUGUAUAUCGC [A5G U69C U80G], the self-cleavage came to 0.43.

As to UAACGGGGGGCCACAGCAGAAGCGUUCACGUCGCAGCCCCUGUCAGAUUCUGGAGAAUCUGCGAAUUCUGCUGUAUACCUC [A5G U54A U78C], the self-cleavage was 0.87.

Regarding UAACGGGGGGCCACAGCAGAAGCGUUCACGUCGCAGCCCCUGUCAGAUUCCGGUGAAUCUGCGAAUUCCGCUGUAUAUCUC [A5G U51C U69C], the self-cleavage was determined as 0.47.

As for UAACUGGGGGCCCCAGCAGAAGCGUCCACGUCGGAGCCCCUGUCAGAUUCUGGUGAAUCUGCGAAUUCUGCUGUAUAUCUC [A5U A13C U26C C34G], the self-cleavage came out at 0.48.

UAACGGGGGGCCACAGCAGAAGCGUUCACGUCGCAGCCCCUGUCAGAUUCUGGUGAAUCUGCGAAGUCUGCUGUAUACCUC [A5G U66G U78C]: the self-cleavage is 0.29.

Regarding UAACUGGGGGCCGCGGCAGAAGCGUUCACGUCGCUGCCCCUGUCAGAUUCUGGUGAAUCUGCGAAUUCGGCUGUAUAUCUC [A5U A13G A15G A35U U69G], the self-cleavage was determined as 0.07.
